In the supplement of paper PMC4604168 (melanoma cell lines):
The other results are listed elsewhere or left out. Most values come without repeats; read them as rough.

Legend:
Experiment in all cases: cell count relative to DMSO control; melanoma cells; higher = more viable cells
Settings in all cases: library dose: low library concentration; 72 h
COLO792 = tested on: COLO792
COLO800 = tested on: COLO800
COLO829 = tested on: COLO829
G361 = tested on: G361
IPC-298 = tested on: IPC-298
IST-MEL1 = tested on: IST-MEL1
LB2518-MEL = tested on: LB2518-MEL
LOXIMVI = tested on: LOXIMVI
MEL-HO = tested on: MEL-HO
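Note: cell number obtained by counting DAPI-stained nuclei in high-throughput microscope images with image analysis software, screen run in 1,536-well plates.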

Row | SMILES | cell count (COLO792) [%] | cell count (COLO800) [%] | cell count (COLO829) [%] | cell count (G361) [%] | cell count (IPC-298) [%] | cell count (IST-MEL1) [%] | cell count (LB2518-MEL) [%] | cell count (LOXIMVI) [%] | cell count (MEL-HO) [%]
1 | COCC[n+]1c2c(n(Cc3cnccn3)c1C)C(=O)c1ccccc1C2=O + Cn1cncc1[C@@](N)(c1ccc(Cl)cc1)c1ccc2c(c1)c(-c1cccc(Cl)c1)cc(=O)n2C [tipifarnib] (first compound 0.0004 µM, partner dose 0.01 µM) | 111 | 163 | 80 | 88 | 95.8 | 85.7 | 82.5 | 61.1 | 86.8
2 | Nc1cccc2c1CN(C1CCC(=O)NC1=O)C2=O (configuration not stated) [lenalidomide] + NCC(=O)Nc1ccc(-n2nc(C(F)(F)F)cc2-c2ccc3c(ccc4ccccc43)c2)cc1 [OSU03012] (first compound 1 µM, partner dose 1 µM) | 90.2 | 123 | 73.2 | 94.4 | 88.6 | 94.3 | 96.9 | 99.5 | 119
3 | OCc1c[nH]c2ccccc12 [Indole-3-carbinol] + O=C(CCCCCCC(=O)Nc1ccccc1)NO [vorinostat] (first compound 0.8 µM, partner dose 0.08 µM) | 107 | 88.7 | 104 | 108 | 106 | 100 | 92.4 | 124 | 114
4 | Cn1c(Nc2ccc(C(F)(F)F)cc2)nc2cc(Oc3ccnc(-c4ncc(C(F)(F)F)[nH]4)c3)ccc21 + Cc1cc(N2CCOCC2)cc2[nH]c(-c3c(NC[C@@H](O)c4cccc(Cl)c4)cc[nH]c3=O)nc12 [BMS536924] (first compound 0.08 µM, partner dose 0.2 µM) | 29.6 | 89.2 | 82 | 49.3 | 49.9 | 94.7 | 42.8 | 97.8 | 81.4
5 | COCC[n+]1c2c(n(Cc3cnccn3)c1C)C(=O)c1ccccc1C2=O + CN(C)S(=O)(=O)c1ccc2c(c1)/C(=C/c1cc3c([nH]1)CCCC3)C(=O)N2 [SU6656] (first compound 0.0004 µM, partner dose 0.4 µM) | 97.6 | 63.5 | 88.2 | 95.3 | 91.4 | 83.3 |  | 98.7 | 104
6 | COCC[n+]1c2c(n(Cc3cnccn3)c1C)C(=O)c1ccccc1C2=O + NC(=O)Nc1cc(-c2cccc(F)c2)sc1C(=O)N[C@H]1CCCNC1 [AZD7762] (first compound 0.0004 µM, partner dose 0.02 µM) | 120 | 79.8 | 108 | 121 | 97.1 | 97.7 | 117 | 82.4 | 94.9
7 | OCc1c[nH]c2ccccc12 [Indole-3-carbinol] + O=c1cc(-c2cccc3c2Sc2ccccc2S3)oc(N2CCOCC2)c1 [KU55933] (first compound 0.8 µM, partner dose 1 µM) | 102 | 103 | 110 | 108 | 110 | 116 | 105 | 103 | 112
8 | COCC[n+]1c2c(n(Cc3cnccn3)c1C)C(=O)c1ccccc1C2=O + CC1(C)NC(=O)N(c2ccc([N+](=O)[O-])c(C(F)(F)F)c2)C1=O [nilutamide] (first compound 0.0004 µM, partner dose 1 µM) | 92.7 | 38.5 | 83.1 | 105 | 87.4 | 75.2 | 89.7 | 76.1 | 82.1
9 | Nc1cccc2c1CN(C1CCC(=O)NC1=O)C2=O (configuration not stated) [lenalidomide] + C[C@@H]1CCN(C(=O)CC#N)C[C@@H]1N(C)c1ncnc2[nH]ccc12 [CP690550] (first compound 1 µM, partner dose 1 µM) | 95 | 133 | 104 | 104 | 105 | 101 | 88.8 | 113 | 105
10 | Nc1cccc2c1CN(C1CCC(=O)NC1=O)C2=O (configuration not stated) [lenalidomide] + O=C(CCCCCCC(=O)Nc1ccccc1)NO [vorinostat] (first compound 1 µM, partner dose 0.08 µM) | 104 | 77 | 97.1 | 89.7 | 115 | 109 | 95.9 | 66.1 | 102
11 | OCc1c[nH]c2ccccc12 [Indole-3-carbinol] + C[C@@H]1CCN(C(=O)CC#N)C[C@@H]1N(C)c1ncnc2[nH]ccc12 [CP690550] (first compound 0.8 µM, partner dose 1 µM) | 96.8 | 138 | 119 | 104 | 103 | 103 | 87.7 | 110 | 110
12 | O=C(CCCCCCC(=O)Nc1ccccc1)NO [vorinostat] + Cc1ccc(NC(=O)c2cccc(N(C)C)c2)cc1NC(=O)c1ccc(O)cc1 [ZM336372] (first compound 0.08 µM, partner dose 2 µM) | 113 | 126 | 92.7 | 91.2 | 77.9 | 96.5 |  | 87.2 | 76.4
13 | O=C(CCCCCCC(=O)Nc1ccccc1)NO [vorinostat] + O=C(O)c1ccc(-c2c[nH]c3ncc(-c4ccccc4)cc23)cc1C1CCCC1 [GSK650394] (first compound 0.08 µM, partner dose 0.16 µM) | 92.5 | 72.7 | 105 | 91.2 | 94.3 | 90.5 | 114 | 91.1 | 102
14 | Clc1ccc(Nc2nnc(Cc3ccncc3)c3ccccc23)cc1 [vatalanib] + COC(=O)c1sccc1S(=O)(=O)Nc1ccc(Nc2ccccc2)cc1OC [GSK0660] (first compound 2 µM, partner dose 1 µM) | 106 | 96.4 | 102 | 93.5 | 86.1 | 87.4 | 110 | 107 | 89
15 | Clc1ccc(Nc2nnc(Cc3ccncc3)c3ccccc23)cc1 [vatalanib] + c1cc(-c2cnn3cc(-c4ccc(OCCN5CCCCC5)cc4)cnc23)ccn1 [Dorsomorphin] (first compound 2 µM, partner dose 0.4 µM) | 79 | 92.2 | 84.8 | 98.9 | 96.8 | 96.4 | 100 | 98 | 85.5
16 | Clc1ccc(Nc2nnc(Cc3ccncc3)c3ccccc23)cc1 [vatalanib] + COc1cc(Nc2ncc(F)c(Nc3ccc4c(n3)NC(=O)C(C)(C)O4)n2)cc(OC)c1OC [Tamatinib] (first compound 2 µM, partner dose 0.4 µM) | 60.7 | 54 | 97 | 112 | 75.5 | 103 |  | 44.1 | 78.2
17 | OCc1c[nH]c2ccccc12 [Indole-3-carbinol] + Cn1cncc1[C@@](N)(c1ccc(Cl)cc1)c1ccc2c(c1)c(-c1cccc(Cl)c1)cc(=O)n2C [tipifarnib] (first compound 0.8 µM, partner dose 0.01 µM) | 93.9 | 84.1 | 98.1 | 73.5 | 99 | 91.6 | 75.5 | 102 | 89.9
18 | O=C(CCCCCCC(=O)Nc1ccccc1)NO [vorinostat] + COc1cc2c(Oc3ccc4[nH]c(C)cc4c3F)ncnc2cc1OCCCN1CCCC1 [cediranib] (first compound 0.08 µM, partner dose 0.4 µM) | 95.7 | 82.2 | 87.7 | 97.4 | 97 | 102 | 105 | 64.2 | 103
19 | O=C(CCCCCCC(=O)Nc1ccccc1)NO [vorinostat] + CN(NC(=O)CC(=O)NN(C)C(=S)c1ccccc1)C(=S)c1ccccc1 [STA4783] (first compound 0.08 µM, partner dose 0.006 µM) | 61 | 29.6 | 70.8 | 81.1 | 103 | 85.1 | 60.7 | 177 | 95.8
20 | OCc1c[nH]c2ccccc12 [Indole-3-carbinol] + c1cc(-c2cnn3cc(-c4ccc(OCCN5CCCCC5)cc4)cnc23)ccn1 [Dorsomorphin] (first compound 0.8 µM, partner dose 0.4 µM) | 87 | 65.9 | 101 | 90 | 106 | 99.8 | 105 | 82.7 | 73.1
21 | OCc1c[nH]c2ccccc12 [Indole-3-carbinol] + Cc1ccc(NC(=O)c2cccc(N(C)C)c2)cc1NC(=O)c1ccc(O)cc1 [ZM336372] (first compound 0.8 µM, partner dose 2 µM) | 122 | 98.1 | 107 | 112 | 84 | 103 | 85.2 | 102 | 92.5
22 | Nc1cccc2c1CN(C1CCC(=O)NC1=O)C2=O (configuration not stated) [lenalidomide] + COc1cc2c(Oc3ccc4[nH]c(C)cc4c3F)ncnc2cc1OCCCN1CCCC1 [cediranib] (first compound 1 µM, partner dose 0.4 µM) | 89.6 | 78.3 | 88.1 | 95.5 | 92.8 | 91.6 |  | 82.9 | 93.9
23 | COCC[n+]1c2c(n(Cc3cnccn3)c1C)C(=O)c1ccccc1C2=O + OCCn1cc(-c2cnc3nnn(Cc4ccc5ncccc5c4)c3n2)cn1 [PF04217903] (first compound 0.0004 µM, partner dose 1 µM) | 112 | 60 | 86.3 | 100 | 107 | 78.6 | 85.8 | 75.6 | 98.4
24 | O=C(CCCCCCC(=O)Nc1ccccc1)NO [vorinostat] + CO[C@@H]1[C@H](N(C)C(=O)c2ccccc2)C[C@H]2O[C@]1(C)n1c3ccccc3c3c4c(c5c6ccccc6n2c5c31)C(=O)NC4 [Midostaurin] (first compound 0.08 µM, partner dose 0.08 µM) | 90.8 | 90.8 | 74 | 67.7 | 91.4 | 92 | 79.4 | 85.3 | 94.4
